Measured values reported in PubChem BioAssay (NCATS).
The inconclusive results got no clear call from the source; some entries with a clear call stand among them for comparison. For part of these data: A potency beside an inconclusive call is a rough fit, not a confirmed value. The source made the active and inactive calls. Unless noted, calls come from the whole dose curve; as a rule, active = well fitted curve in the direction sought with a large enough effect; inconclusive = small, poorly fitted or top-dose-only effect, or another doubt; inactive = no such curve, though single readings can be large; an effect the other way counts as inactive or inconclusive.

Tests used:
[1] = molecular target: Ferritin light chain (Equus caballus) (UniProt P02791); assay: qHTS Validation Assay for Identification of Novel General Anesthetics (AID 2323); note: potency is the fitted concentration of half-maximal effect
In short: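 Horse-spleen apoferritin (10 uM) in PBS with 50% saturated 1-aminoanthracene; compounds pin-transferred, 10 min at room temperature. Fluorescence read at 380/535 nm, normalized to free 1-AMA and 1-AMA/apoferritin values; four-parameter Hill fit.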

[2] = molecular target: RecQ-like DNA helicase BLM (Homo sapiens) (UniProt P54132); assay: qHTS Validation Assay for Inhibitors of Bloom's syndrome helicase (BLM) (AID 2364); note: potency is the fitted concentration of half-maximal effect
In short: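 BLM 50 nM in 25 mM Tris-HCl pH 8.0, 5 mM NaCl, 2 mM MgCl2, 1 mM DTT, 0.01% Tween-20, 2.5 ug/ml poly(dI-dC); 15 min cpd preinc, RT. Start: 200 nM forked DNA + 2 mM ATP (final). TAMRA read, 2 reads 2 h apart.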

[3] = Validation screen for small molecules that induce DNA re-replication in MCF 10A normal breast cells (AID 463097); note: potency is the fitted concentration of half-maximal effect; nearly all actives have a fitted effect of over 60% in size
In short: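 MCF 10A cells exposed to compound 48 hr at 37 C, 5% CO2, then Hoechst-stained 40 min. Laser-scanning imaging of nuclear DNA content (405 nm ex, 500-530 nm em); re-replication scored as rise in nuclei with elevated fluorescence intensity.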

[4] = qHTS Validation Assay to Find Inhibitors of Chronic Active B-Cell Receptor Signaling (AID 485345; active = well fitted curve in the direction sought with a large enough effect in the main read-out, with a control signal flat, not every such curve was filed as active; inconclusive = small, poorly fitted or top-dose-only effect, or effect the other way, or a change in a side signal; inactive = no such curve, though single readings can be large or run the other way;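 note: 0% = untreated basal cells and 100% = 10 µM MG-132 proteasome inhibitor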); conditions: ABC-DLBCL cells, chronic BCR signaling reporter, CBG luciferase; at 46.1 µM (top of the series)
In short: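 TMD8 ABC-DLBCL cells with dox-inducible green luciferase–IκBα fusion and red native luciferase; compounds 46 uM–3 nM, 4 h at 37C with doxycycline in 0.5% FBS IMDM. Green/red ratio normalized to basal and 10 uM MG-132.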

[5] = qHTS for differential inhibitors of proliferation of Plasmodium falciparum line HB3 (AID 1886); conditions: Potency: Plasmodium falciparum HB3 proliferation inhibition;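 note: potency is the fitted concentration of half-maximal effect; parasites grown with compound for 72 h before SYBR Green readout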
[6] = qHTS Assay for Modulators of Human Peripheral Myelin Protein 22 (PMP22) Expression/Activity (AID 1967; active = well fitted curve in the direction sought with a large enough effect in the signal ratio; inconclusive = small, poorly fitted or top-dose-only effect, or effect the other way, or a change in a side signal; inactive = no such curve, though single readings can be large or run the other way; the % refers to the signal ratio; note: potency is the fitted concentration of half-maximal effect); conditions: Cell-based PMP22 reporter, dual-color luciferase ratio, mouse Pmp22 promoter in mouse Schwann cells; activity change (ratio): at 115 µM (top of the series), 0% = compound-free control cells
In short: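 Mouse MSC80 Schwann cells carrying Pmp22 promoter–green click beetle luciferase plus EF-alpha–red luciferase control, dosed 24 h at 37 °C. Dual-filter luminescence, overlap-corrected; %Activity from green/red ratio normalised to untreated cells, concentration-response curves fitted.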

[7] = High Content Imaging Cell-Based qHTS for Inhibitors of the mTORC1 Signaling Pathway in MEF Cells (AID 2667); note: potency is the fitted concentration of half-maximal effect
In short: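 Fixed-cell imaging of phospho-S6 (Ser235/236, Alexa-488) after 24 hrs of compound treatment at 37 degree Celsius. Signal was normalized to Hoechst, and thresholds from the highest and lowest wells split cells into % active versus % non-active.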

[8] = Cytometry Cell-Based qHTS for Inhibitors of the mTORC1 Signaling Pathway in MEF cells (AID 2668); note: potency is the fitted concentration of half-maximal effect
In short: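 MEFs (Tsc2-/-, p53-/- stably expressing WT Tsc2) treated 24 h at 37 degree Celsius, fixed, stained with Alexa-488 anti-phospho-rpS6 Ser235/236 and propidium iodide; Acumen laser scanning. Reported as % positive cells, phospho-S6 normalized to PI.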

[9] = molecular target: Ubiquitin carboxyl-terminal hydrolase 2 (Homo sapiens) (UniProt O75604); assay: qHTS Validation Assay for Inhibitors of Ubiquitin-specific Protease USP2a Using CHOP2 as the Reporter (AID 463106); conditions: USP2a cleavage of CHOP2 reporter, enzymatic; note: potency is the fitted concentration of half-maximal effect
In short: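 Inhibition is expressed relative to NEM as the full-inhibition control, with concentration-response curves classed by fit quality, magnitude and activity. Enzyme (USP2 core, 10nM) meets 25nM Ub-CHOP2 after compound preincubation; readings are taken at 60min.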
Tags give direction and shape of the fitted curve or compound fluorescence and quenching.

Sequence of UniProt P54132 (P54132 whole entry, looked up): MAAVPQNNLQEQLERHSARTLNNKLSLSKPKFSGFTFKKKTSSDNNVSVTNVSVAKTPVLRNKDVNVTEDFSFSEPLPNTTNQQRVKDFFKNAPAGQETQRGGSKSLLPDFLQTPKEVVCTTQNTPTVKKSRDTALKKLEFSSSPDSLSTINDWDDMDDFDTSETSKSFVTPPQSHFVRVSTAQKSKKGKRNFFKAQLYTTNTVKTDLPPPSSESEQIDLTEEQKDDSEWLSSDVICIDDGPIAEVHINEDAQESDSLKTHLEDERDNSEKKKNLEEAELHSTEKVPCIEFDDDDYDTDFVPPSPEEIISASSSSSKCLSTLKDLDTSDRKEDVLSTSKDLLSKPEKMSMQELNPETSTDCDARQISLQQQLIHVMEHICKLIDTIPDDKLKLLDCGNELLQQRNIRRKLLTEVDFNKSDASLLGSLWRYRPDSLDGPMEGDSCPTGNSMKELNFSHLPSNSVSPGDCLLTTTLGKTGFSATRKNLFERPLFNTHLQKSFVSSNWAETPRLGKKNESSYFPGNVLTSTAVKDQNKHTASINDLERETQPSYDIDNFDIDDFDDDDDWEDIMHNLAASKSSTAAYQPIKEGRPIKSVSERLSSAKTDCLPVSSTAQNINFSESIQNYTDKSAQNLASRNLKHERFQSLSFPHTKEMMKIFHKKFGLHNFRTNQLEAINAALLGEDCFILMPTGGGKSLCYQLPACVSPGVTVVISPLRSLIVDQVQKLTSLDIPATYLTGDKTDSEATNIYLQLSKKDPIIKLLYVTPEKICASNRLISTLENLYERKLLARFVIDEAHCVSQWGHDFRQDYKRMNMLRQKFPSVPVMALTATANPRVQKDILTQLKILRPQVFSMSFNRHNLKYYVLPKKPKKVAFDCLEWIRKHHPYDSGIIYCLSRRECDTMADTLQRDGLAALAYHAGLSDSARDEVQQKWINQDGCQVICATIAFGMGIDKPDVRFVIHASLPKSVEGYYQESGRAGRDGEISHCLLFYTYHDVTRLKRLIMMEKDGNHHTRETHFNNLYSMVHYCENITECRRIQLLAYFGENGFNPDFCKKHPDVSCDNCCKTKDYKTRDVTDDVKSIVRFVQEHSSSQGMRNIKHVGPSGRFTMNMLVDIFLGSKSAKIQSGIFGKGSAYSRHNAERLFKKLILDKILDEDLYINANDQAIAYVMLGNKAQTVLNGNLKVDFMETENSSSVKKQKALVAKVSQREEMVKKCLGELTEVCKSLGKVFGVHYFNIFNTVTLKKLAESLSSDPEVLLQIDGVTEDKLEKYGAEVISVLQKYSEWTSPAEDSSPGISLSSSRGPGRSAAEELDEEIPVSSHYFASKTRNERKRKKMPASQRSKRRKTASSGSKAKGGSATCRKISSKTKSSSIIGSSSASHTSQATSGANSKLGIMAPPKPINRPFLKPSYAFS
Sequence of UniProt P02791 (P02791 whole entry, looked up): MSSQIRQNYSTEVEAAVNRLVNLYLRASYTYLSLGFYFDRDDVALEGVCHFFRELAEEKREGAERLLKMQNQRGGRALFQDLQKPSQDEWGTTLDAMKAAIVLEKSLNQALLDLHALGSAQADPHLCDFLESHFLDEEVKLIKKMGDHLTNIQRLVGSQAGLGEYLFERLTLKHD
Sequence of UniProt O75604 (O75604 whole entry, looked up): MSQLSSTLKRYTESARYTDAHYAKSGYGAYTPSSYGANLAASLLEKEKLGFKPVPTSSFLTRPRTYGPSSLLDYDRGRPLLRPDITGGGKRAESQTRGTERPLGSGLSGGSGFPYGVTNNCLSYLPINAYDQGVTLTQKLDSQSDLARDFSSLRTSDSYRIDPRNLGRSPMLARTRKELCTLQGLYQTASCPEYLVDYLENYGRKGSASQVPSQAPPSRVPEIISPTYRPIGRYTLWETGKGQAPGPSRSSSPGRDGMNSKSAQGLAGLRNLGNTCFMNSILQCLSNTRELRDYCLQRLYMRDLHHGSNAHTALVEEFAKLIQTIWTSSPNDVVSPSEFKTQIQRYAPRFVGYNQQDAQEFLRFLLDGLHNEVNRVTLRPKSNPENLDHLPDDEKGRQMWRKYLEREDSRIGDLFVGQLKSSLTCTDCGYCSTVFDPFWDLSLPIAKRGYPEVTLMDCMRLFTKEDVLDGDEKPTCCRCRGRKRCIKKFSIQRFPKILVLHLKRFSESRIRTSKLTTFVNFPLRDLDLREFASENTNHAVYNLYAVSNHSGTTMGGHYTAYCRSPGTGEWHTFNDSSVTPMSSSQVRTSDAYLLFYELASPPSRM

CCC(C)N(C)C(=O)c1cc2ccccc2c(-c2ccccc2Cl)n1 (stereo not drawn)
Potency [1]: inconclusive: 31.6 µM [inhibitor, partial curve]
Potency [2]: inconclusive: 25.1 µM [inhibitor, partial curve]

CC1(C)C(=O)N(CCN2CCC(C(=O)c3ccc(F)cc3)CC2)c2ccccc21
Potency [1]: inconclusive: 35.5 µM [inhibitor, partial curve]
Potency [2]: inconclusive: 0.0063 µM [inhibitor, full curve, poor fit]
Potency [3]: inconclusive: 14.1 µM [activator, single point]
activity change [4]: inconclusive: -31.4%

CNC[C@H](O)c1cccc(O)c1
Potency [2]: inconclusive: 56.2 µM [inhibitor, partial curve, poor fit]

Cc1ccc(N(CC2=NCCN2)c2cccc(O)c2)cc1
Potency [5]: inconclusive: 20 µM [inhibitor, single point]
Potency [6]: inconclusive: 67.5 µM [cytotoxic, partial curve]
Potency [2]: inconclusive: 1.12 µM [inhibitor, full curve, poor fit]

O=c1c(O)c(-c2cc(O)c(O)c(O)c2)oc2cc(O)cc(O)c12
Potency [5]: inconclusive: 7.94 µM [inhibitor, partial curve]
Potency [2]: active: 14.1 µM
Potency [7]: inconclusive: 16.5 µM [falling, single point]
Potency [8]: inconclusive: 23.3 µM [falling, single point]
Potency [9]: inconclusive: 5.21 µM [falling, partial curve]

OC(CN1CCN(c2cccc(Cl)c2)CC1)C(c1ccccc1)c1ccccc1 (stereo not drawn)
Potency [5]: inconclusive: 14.1 µM [inhibitor, partial curve, poor fit]
Potency [2]: inconclusive: 11.2 µM [inhibitor, full curve]
Potency [3]: inconclusive: 11.2 µM [activator, partial curve]
